Reference: the supplement of paper PMC10338343
± gives the standard deviation. Whole data set: some 6,600 sequences, median “pre-steady-state target cleavage rate” near 0.07, cut for the highest 2% near 0.72. The entries are a selection whose mix differs from that of the whole data set.

What follows are sequences tested on MIWI (PIWIL1) piRISC loaded with Kctd7 piRNA (30 nt) (assay: pre-steady-state target cleavage rate (min^-1); MIWI and MILI are mouse PIWI proteins and EfPiwi is from a freshwater sponge; tags in brackets are library labels; higher = faster piRNA-guided slicing of the target). Settings: guide: Kctd7 piRNA 5'p-UGUUAAUCUCUCAGAGAAGGUGACAGUGAU; auxiliary factor: 500 nM mouse GTSF1.
Description: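 Cleave-'n-Seq: a library of target RNAs (target site embedded in constant flanks, ACAGCATTCCGCGTTAGTGATATCCG... 5' flank; DNA-blocked outside the site) at 0.1 nM was incubated with 1 nM active mouse MILI or MIWI piRISC (synthetic 5'-monophosphorylated piRNA guide) with or without 500 nM mouse GTSF1 at 33 °C for 1 min to 16 h. Uncleaved targets were sequenced and normalised to non-target controls, and the pooled three trials were fitted to a burst-and-steady-state model to give the pre-steady-state cleavage rate (min^-1; k3 is constrained to at most 1e-4). Sequence is the target site only; target names encode pairing extent (gX:gY) and contiguous / 1-mismatch / 2-mismatch / bulge geometry. Fits with R² ≤ 0 are excluded.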
UAGUGACUCACCAUCUCUGUGAGAUUAACA was tested, and the “pre-steady-state target cleavage rate” value was 0.0556 ± 0.0073.
UAGUGAGUUCACCUUCUCUGAGAGAUUAACA was tested, and the “pre-steady-state target cleavage rate” value was 0.585 ± 0.027.
In the case of UAGUGACUCACCUUCUCAGAGUGAUUAACA, the “pre-steady-state target cleavage rate” value is reported as 0.00965 ± 0.0024.
In the case of UAGUGACUCACCUUGUCUGAGAGAUUAUCA, the “pre-steady-state target cleavage rate” value is reported as 0.0668 ± 0.024.
In the case of AUUACUGUCACCUUCUCUGAGAGAUUAACA, the “pre-steady-state target cleavage rate” value is reported as 0.713 ± 0.032.
In the case of UACACUGUGACCUUCUCUGUGAGAUUAACA, the “pre-steady-state target cleavage rate” value is reported as 0.208 ± 0.024.
In the case of AUCACACUCACCUUCUCUGAGAGAUUUUGA, the “pre-steady-state target cleavage rate” value is reported as 0.0908 ± 0.028.
UAGACUGUCUCGUUCUCUGAGAGAUUAACA was tested, and the “pre-steady-state target cleavage rate” value was 0.626 ± 0.043.
With UUCACUGUCACCUUCUCUGUAGAGAUUAACA the “pre-steady-state target cleavage rate” value was 0.114 ± 0.037.
UAGUGACUCACCUUCACUGAGAGUUUAACA was tested, and the “pre-steady-state target cleavage rate” value was 0.145 ± 0.028.
With UAGACUCUCACCUUCUCUGACAGAUUAACA the “pre-steady-state target cleavage rate” value was 0.566 ± 0.036.
UUCACUGAGUCCUUCUCUGAGAGAUUAAGA was tested, and the “pre-steady-state target cleavage rate” value was 0.0856 ± 0.019.
In the case of UAGUGACUCACCUUCUCUGAGAGUAUAACA, the “pre-steady-state target cleavage rate” value is reported as 0.077 ± 0.012.
For UAGUGAGUCACCUUCUGUGAGAGAUUAACA, the “pre-steady-state target cleavage rate” value was 0.609 ± 0.036.
For UAGACUGUCACCAUGUCUGAGAGAUUAACA, the “pre-steady-state target cleavage rate” value was 0.252 ± 0.025.
For UUCACUGUCCCCUUCUCUGAGAGAUUAACA, the “pre-steady-state target cleavage rate” value was 0.685 ± 0.048.
For UAGUCUGUCACCUUCUCUGAGAGUAAAACA, the “pre-steady-state target cleavage rate” value was 0.0972 ± 0.016.
UUCACUGUCACCUUCUCUGACAGAUAUUGA was tested, and the “pre-steady-state target cleavage rate” value was 0.00372 ± 0.0035.
In the case of UUCACUGUCUGCUUCUCUGAGAGAUUUUGA, the “pre-steady-state target cleavage rate” value is reported as 0.0101 ± 0.0031.
With UAGACUGACACCUUCUCUGAGAGUUUAACA the “pre-steady-state target cleavage rate” value was 0.324 ± 0.061.
In the case of UAGACAGUCACCUUCUCUGAGAGUUUAACA, the “pre-steady-state target cleavage rate” value is reported as 0.484 ± 0.087.
With UAGUGAGUCACCUUCUCUAAGAGAUUAACA the “pre-steady-state target cleavage rate” value was 0.483 ± 0.02.
For UAGUGACUCACCUUGUCUGAGAGAUUAACA, the “pre-steady-state target cleavage rate” value was 0.135 ± 0.029.
For UUCACUGUCAGCUUCUCUGACAGAUUAACA, the “pre-steady-state target cleavage rate” value was 0.0541 ± 0.013.
With UAGACUGUCACCUUCUGUGUGAGAUUAACA the “pre-steady-state target cleavage rate” value was 0.0954 ± 0.0065.
“AUCACUGUCACCUUCUCUCUCUCUAAUUGA [g13:g30:cont:t1A]” was tested, and the “pre-steady-state target cleavage rate” value was 0.0033 ± 0.0032.
AUCACAGUCACCUUCUCUGAGAGAAUAACA was tested, and the “pre-steady-state target cleavage rate” value was 0.305 ± 0.047.
UACAGUGUCACCUUCUCUGAGAGAUUAUCA was tested, and the “pre-steady-state target cleavage rate” value was 0.271 ± 0.048.
For UAGUCUGUCACCUUCUCUAGAGAUUAACA, the “pre-steady-state target cleavage rate” value was 0.177 ± 0.015.
UAGUCUGUCACCUUCUCAGAGAGAUAAACA was tested, and the “pre-steady-state target cleavage rate” value was 0.147 ± 0.02.
For UAGUGACUCACCUUCUCUGAGAGAUUAAUA, the “pre-steady-state target cleavage rate” value was 0.233 ± 0.035.
For UACACUGUCACCUUGUCUGAGAGAUAAACA, the “pre-steady-state target cleavage rate” value was 0.229 ± 0.064.
For UAGACUGUGUCCUUCUCUGAGAGAUUAUGA, the “pre-steady-state target cleavage rate” value was 0.0121 ± 0.0036.
UAGUGUGUGACCUUCUCUGACAGAUUAACA was tested, and the “pre-steady-state target cleavage rate” value was 0.159 ± 0.026.
UAGACUGUCACCUUCUCUGACAGAUUAACA was tested, and the “pre-steady-state target cleavage rate” value was 0.219 ± 0.026.
In the case of UAGUGUGUCUCCUUCUCUGAGUGAUUAACA, the “pre-steady-state target cleavage rate” value is reported as 0.0227 ± 0.0032.
